The values below come from ChEMBL document CHEMBL4888484, “Replenishing the malaria drug discovery pipeline: Screening and hit evaluation of the MMV Hit Generation Library 1 (HGL1) against asexual blood stage Plasmodium falciparum ,using a nano luciferase reporter read-out” (2022).

About 540 (0.36%) of roughly 150,000 compounds showed an effect of 50% or more. This is one part of the list.

The assay has as its system Plasmodium falciparum. The experiment in a line: Primary screen in NF54 nanoGlo assay, in single point, at 2uM, 72h; a lower Z score goes with more inhibition. It counts as functional, Erythrocyte. Particulars: timepoint 72 hour.
Regarding `CCOc1ccccc1CNC(=O)[C@@H]1CCCCCN1C`, the % Inhibition (as a rule, the change of the read-out against control, counted positive when it falls) was -12% and the Z score was 2.08.
Taken in the same sequence, the figures for `CNC(=O)C1CCN(CC(=O)N(Cc2ccccc2)c2nc3c(C)c(C)ccc3s2)CC1` were 6% and -0.82.
For `Cc1cccc(N2CCN3C(=O)NC[C@H]3C2)n1`, in that order: 14% and -1.63.
For `CC(C)c1cncnc1N1CC[C@H]2[C@H](CCC(=O)N2CCc2cccs2)C1`, in that order: -6% and 0.97.
In the case of `O=C(c1ccc2[nH]cnc2c1)N1CC(c2nc(-c3cccs3)no2)C1`, the “% Inhibition” value was -7% and the Z score came to 1.33.
For `CCC(=O)N(C)C1CCC(NC(=O)OC(C)(C)C)CC1` (stereo unspecified), in that order: -6% and 0.52.
Taken in the same sequence, the figures for `CCn1cc(CN2C[C@@H]3CC[C@H]2CN(C2Cc4ccccc4C2)C3)cn1` were 2% and -0.33.
On to `Cc1nnc(CN(CC(=O)NC[C@H]2CCCO2)C(C)(C)C)o1`, for which the “% Inhibition” value is 28% and the Z score is recorded as -3.71.
As to `CCn1c(-c2cccc(OC)c2)nc2cc(NC(C)=O)cc(C(=O)N3CC4CCCC3C4)c21` (stereo unspecified), the “% Inhibition” value was -5% and the Z score is 0.85.
As to `COC(=O)CCn1cc(CN[C@H]2CC(=O)N(c3ccccc3)C2)cn1`, the “% Inhibition” value is listed as -6% and the Z score was found to be 0.9.
For `C[C@]1(NCc2cc3cc(Cl)cnc3o2)CCCOC1`, in that order: -3% and 0.49.
For `COc1cc(/N=C(\NC[C@H]2CCCO2)NC(=O)c2cccc(OC)c2)cc(OC)c1`, in that order: -24% and 2.24.
For `CCN(C(=O)C1CC2C=CC1C2)C1CC(=O)NC1=O` (stereo unspecified), in that order: -8% and 1.34.
As for `O=C(NCc1ccc(F)cc1)c1coc(CN(Cc2ccc(C(F)(F)F)cc2)Cc2ccc3c(c2)OCO3)n1`, the “% Inhibition” value is given as -6% and the Z score is 0.84.
For `COc1ccc(C2CN(Cc3ccc(C(F)(F)F)cc3)CC2CN(Cc2ccc(F)cc2)C(C)=O)cc1` (stereo unspecified), in that order: -14% and 1.75.
For `O=C(NCCc1ccc(Cl)s1)NC[C@H]1CCOC1`, in that order: 0% and 0.01.
Taken in the same sequence, the figures for `O=C(CN1CCOCC1)N1CCc2nocc2C1` were 3% and -0.44.
In the case of `CC(C(=O)NCC1(C)CCC(=O)N1)C1CCC1` (stereo unspecified), the “% Inhibition” value came to 0% and the Z score is -0.01.
`c1cn(-c2ccc(OC34CCCN(CC3)C4)cc2)cn1` (stereo unspecified): the “% Inhibition” value worked out at 1% and the Z score is -0.26.
For `CN(C)c1ccc(-n2ccnc2-c2cn(C3CCNCC3)nn2)cc1`, in that order: -1% and 0.26.
With `Cn1cc(S(=O)(=O)N2CCCN(C(=O)Cc3ccsc3)CC2)cn1`, the “% Inhibition” value is on record as -11% and the Z score amounted to 1.75.
For `CC(C)N(C)Cc1ccccc1CNC(=O)c1cn(C(C)(C)C)nn1`, the “% Inhibition” value is reported as 5% and the Z score was -0.62.
For `CC(C)(CN(C(=O)C1CCCOC1)C1CC1)NC(=O)C1CCCOC1` (stereo unspecified), in that order: -2% and 0.19.
